Data as given in PubChem BioAssay AID651820 (National Center for Advancing Translational Sciences (NCATS), 2012).
Hit rate of the full screen: of about 340,000 compounds, about 12,000 (3.5%) were called active. Inconclusive results, whose numbers are uncertain, are shown with a selection of clear calls. Calls come from the whole dose curve; as a rule, active = well fitted inhibition curve with a large enough effect; inconclusive = small, poorly fitted or top-dose-only effect, or another doubt; inactive = no such curve, though single readings can be large or run the other way. No potency is given beside an inconclusive call; the fits are too rough. The source holds several records for some structures; these can differ, active in one and inactive in another.

Test: qHTS Assay for Inhibitors of Hepatitis C Virus (HCV)
Settings: Huh7.5.1 HCVcc-Cre (HCVcc is cell-culture hepatitis C virus) infection, luciferase reporter, 44 h; activity change, negative = inhibition: at 41.8 µM (top of the series)
How it was run: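 Antiviral activity was scored by luciferase reporter output from cells infected with HCVcc-Cre (~0.5 moi) in presence of compound, 44 h infection period, cells seeded 1,000/well 4 h prior.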
% is set by controls: 0 for no effect and ±100 for the full control effect; potency is the fitted concentration of half-maximal effect; tags give direction and shape of the fitted curve.

SMILES | Potency | activity change, negative = inhibition
Cc1ccc(NC(=O)COc2coc(CN3CCc4ccccc4C3)cc2=O)c(C)c1 | inconclusive [inhibitor, single point] | –
CN(C)c1ccc(NC(=S)NC(=O)/C=C/c2ccc(Cl)cc2)cc1 | inactive | –
C[C@@H]1C[C@@H]2OC(=O)[C@]3(C)[C@H]2[C@@H](OC3(C)O)[C@]2(C)C(=O)C=C[C@H]12 (stereo partly drawn) | inactive | –
COc1ccc(OCC(O)CN2CCNCC2)cc1 (stereo not drawn) | inactive | –
Cc1ccc(SCCCn2cnc3ccccc3c2=O)cc1 | inconclusive [inhibitor, single point] | –
COc1ccc(/C=C/C(=O)NC2=NCCS2)cc1OC | inconclusive [inhibitor, single point] | –
O=C(N/N=C/c1ccccn1)c1cc(-c2ccccc2Cl)n[nH]1 | inactive | –
COC(=O)c1cc(C(=O)Nc2ccc(Cl)cn2)cc([N+](=O)[O-])c1 | inconclusive [inhibitor, single point] | –
O=c1oc2ccccc2c(Nc2ccccc2O)c1[N+](=O)[O-] | inconclusive [inhibitor, single point] | –
CN(CC(=O)Nc1ccccc1Br)C(=O)CCSc1ccc(F)cc1 | inactive | –
COc1cccc(C(=O)Nc2ccc3nc(N4CCN(c5ncccn5)CC4)cc(C)c3c2)c1OC | inconclusive [inhibitor, single point] | –
O=c1c(Sc2ccccc2)c(C(F)(F)F)[nH]n1-c1ccccc1 | inconclusive [inhibitor, single point] | –
COc1ccc(C(=O)NCCC2=CCCCC2)cc1OC1CCN(C(C)C)CC1 | inactive | –
CC(C)(C)c1ccc(OCc2ccc(C(=O)Nc3cccnc3)o2)cc1 | inconclusive [inhibitor, single point] | –
CCc1cc2c(=O)c(-c3nc4ccccc4[nH]3)coc2c(CN2CCCCC2C)c1O (stereo not drawn) | inconclusive [inhibitor, full curve, poor fit] | –
CN1CCN(S(=O)(=O)c2ccc(NC(=O)Nc3cccc(Cl)c3)cc2)CC1 | active: 7.94 µM | –
C=CCn1c(COc2ccc(Cl)cc2)nnc1SCC(=O)c1c(N)n(C)c(=O)n(C)c1=O | inactive | –
Cc1cccn2c(=O)c3cc(C(=O)N(C)C)n(C)c3nc12 | inconclusive [inhibitor, single point] | –
COc1ccc(NC(=O)NC23CC4CC(CC(C4)C2)C3)cc1OC | inactive | –
Cn1c2ccccc2c2cc([N+](=O)[O-])ccc21 | inconclusive [inhibitor, single point] | –
Cc1nn(Cc2ccc(C(=O)N3N=C(C(F)F)CC3(O)C(F)F)o2)c(C)c1[N+](=O)[O-] (stereo not drawn) | inconclusive [inhibitor, partial curve] | –
COc1cccc2sc(NNC(=O)C3COc4ccccc4O3)nc12 (stereo not drawn) | inactive | –
Cc1nnc(Sc2cc(NCCO)c([N+](=O)[O-])c3nonc23)s1 | inconclusive [inhibitor, single point] | –
COc1ccc(C2C(C#N)=C(N)N(c3sc4c(c3C#N)CCCC4)C3=C2C(=O)CC(C)(C)C3)cc1 (stereo not drawn) | active: 7.94 µM | –
Brc1ccc2ncc(Br)cc2c1 | inconclusive [inhibitor, single point] | –

SMILES | Potency | activity change, negative = inhibition
N#C/C=C/N1CCN(Cc2ccc3c(c2)OCO3)CC1 | inconclusive [inhibitor, single point] | –
O=c1cc(C(F)(F)F)[nH]c2ccc(OC(F)(F)F)cc12 | – | inconclusive: -71.2% [inhibitor]
CCOCCCn1c(=S)[nH]c2cc(C(=O)NCCN(CC)CC)ccc2c1=O | active: 12.6 µM | –
COc1ccc(NCc2nnc(SCc3ccccc3)n2-c2ccc(OC)cc2)cc1 | inconclusive [inhibitor, single point] | –
Cc1ccc(NC(=O)CC(C)c2ccccc2)cc1S(=O)(=O)N1CCOCC1 (stereo not drawn) | inconclusive [inhibitor, partial curve] | –
O=C(COc1ccc([N+](=O)[O-])cc1)NNC(=S)NC(=O)c1ccc(Br)cc1 | inconclusive [inhibitor, single point] | –
CCOC(=O)C[C@H]1c2ccccc2S(=O)(=O)N1Cc1cc(OC)c(OC)c(OC)c1 | inconclusive [inhibitor, full curve] | –
COc1ccc(C2=NN3C(=O)c4c(ccc(OC)c4OC)C3C2)cc1 (stereo not drawn) | inactive | –
Cc1ccc(NC(=O)CCSc2nnc(-c3ccco3)o2)cc1 | inconclusive [inhibitor, single point] | –
COC(=O)Cn1cnc2c(Cl)nc(F)nc21 | active: 5.62 µM | –
O=C(Cc1cccc(NC(=O)C2CCCN(C(=O)C3CCC3)C2)c1)Nc1ccc(C(=O)N2CCCCC2)cc1 (stereo not drawn) | inactive | –
COc1cc(CN(C)C(=O)C2CCN(S(=O)(=O)c3cccs3)CC2)ccc1OC(F)F | inconclusive [inhibitor, single point] | –
CCCNc1nc2c(c(=O)n(C)c(=O)n2C)n1CCC(C)C | inconclusive [inhibitor, full curve] | –
CCc1ccc(S(=O)(=O)/N=C2/C=C(Sc3ncn[nH]3)C(=O)c3ccccc32)cc1 | active: 2.82 µM | –
CCN(CC)CCNC(=O)c1ccc(NC(=O)COc2ccc3c(c2)CCC3)cc1 | inconclusive [inhibitor, partial curve, poor fit] | –
COc1ccccc1N1CCN(S(=O)(=O)c2ccc3c(c2)NC(=O)CS3)CC1 | inconclusive [inhibitor, single point] | –
COC(=O)c1sc2nc(N3CCCCC3)c3c(c2c1N)CCCC3 | active: 12.6 µM | –
CS(=O)(=O)N(CC(=O)Nc1ccc(CC#N)cc1)c1ccc(C23CC4CC(CC(C4)C2)C3)cc1 | inconclusive [inhibitor, single point] | –
Cc1cccc(OCCCC(=O)Nc2nnc(C3CCCO3)s2)c1C (stereo not drawn) | inactive | –
Cc1ccc(-c2csc(/C(C#N)=C(\O)CCl)n2)cc1 | inconclusive [inhibitor, single point] | –
CCOC(=O)c1cn2nc(-c3ccc(OCC)cc3)cc2nc1C1CCN(C(=O)OC(C)(C)C)CC1 | inconclusive [inhibitor, partial curve, poor fit] | –
FC(F)(F)c1cccc(N2Cc3ccccc3C2)c1 | inactive | –
COc1ccc(NC(=O)c2ccco2)cc1NC(=O)c1ccc(Br)o1 | inconclusive [inhibitor, partial curve] | –
Nc1ccc(C(=O)n2c3ccccc3c3ccccc32)cc1 | inconclusive [inhibitor, partial curve] | –
Cc1ccc2c(COC(=O)C3CSC4(C)CCC(=O)N34)cc(=O)oc2c1C (stereo not drawn) | inactive | –

SMILES | Potency | activity change, negative = inhibition
CCCCCC(=O)N/N=C/c1ccc([N+](=O)[O-])o1 | inconclusive [inhibitor, single point] | –
Cc1ccc(C)c(NC(=S)NCc2ccc3c(c2)OCO3)c1 | inconclusive [inhibitor, partial curve] | –
CCC(C)n1c(-c2cc(OC)c(OC)c(OC)c2)nc2nc3ccccc3nc21 (stereo not drawn) | active: 15.8 µM | –
CCOC(=O)C1CCN(C(=O)c2cc3ccc(OC)cc3[nH]2)CC1 | inactive | –
CCC(CC)C(=O)c1c[nH]c(C(=O)NCc2ccc(F)cc2)c1 | inactive | –
CCN1CCN(CC(=O)c2c(C)n(Cc3ccccc3)c3ccc(OC)cc23)CC1 | inconclusive [inhibitor, single point] | –
COc1ccccc1OCc1ccc(C(=O)N(C)C)o1 | inconclusive [inhibitor, single point] | –
Cc1noc(C)c1CSCC(=O)Nc1ccc(Br)cc1Cl | inactive | –
CCOC(=O)NC(=O)CSc1nc2ccc(OCC)cc2[nH]1 | inactive | –
Cc1ccc(NC(=O)CN(C)C(=O)COC(=O)c2ccc(NC(=O)CC#N)cc2)cc1 | inactive | –
Cc1cccc(-c2cccc(NC(=O)C3CCCN(C(=O)c4ocnc4C)C3)c2)c1 (stereo not drawn) | inconclusive [inhibitor, single point] | –
COC(=O)c1ccc(NC(=O)CSc2nc(=O)cc(N)n2-c2ccccc2)cc1 | inactive | –
COc1cccc(CNC(=O)c2cccc(S(=O)(=O)N3CCN(c4ccc(F)cc4)CC3)c2)c1 | inconclusive [inhibitor, full curve] | –
Cc1cc(C)c2nc(NCCCNC(=S)NCCCN(C)C)c(C#N)cc2c1 | active: 11.2 µM | –
COc1ccc(NC(=O)CSc2nc3ccccc3c(=O)n2CCCN2CCC(C)CC2)c(OC)c1 | inconclusive [inhibitor, full curve] | –
Cc1ccc(NC(=O)c2ccc(C)cc2)cc1 | inactive | –
Cc1nc2c(C)cccc2cc1C(=O)N/N=C/c1ccc(N(C)C)cc1 | inconclusive [inhibitor, partial curve] | –
C(=C\c1nccc2c1[nH]c1ccccc12)/c1ccccc1 | inconclusive [inhibitor, single point] | –
Cc1cc(C)nc(SCc2cc(=O)c(OC(=O)c3cccc([N+](=O)[O-])c3)co2)n1 | inactive | –
CCN(CC)CCSc1nnc2c3cc(C)ccc3n(Cc3ccccc3)c2n1 | active: 12.6 µM | –
Cc1cccc2c(=O)cc(C)n(Cc3ccccc3)c12 | inconclusive [inhibitor, single point] | –
CCCCCc1c(O)nc(SCC(=O)NCC2CCCO2)[nH]c1=O (stereo not drawn) | inactive | –
Cc1cccc(NS(=O)(=O)c2cc(C(=O)NCCC3=CCCCC3)ccc2Cl)c1 | inconclusive [inhibitor, single point] | –
